According to the supplement of paper PMC6206098:
± gives the uncertainty stated by the source. The sequences are guide strands of siRNAs; only the seed at positions 2 to 7 varies.

Assays:
HeyA8 = assay: cell viability relative to lipid-only control; higher = less toxic; details: concentration: 10 nM; 96 h; Homo sapiens
Experimental: (§1)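 Arrayed screen of 4096 siRNA duplexes, each carrying one of all possible 6mer seeds at guide-strand positions 2-7 in a fixed neutral 19mer scaffold (constant flanks: U at position 1, then ACAUGUAAACCA, plus a 3' AA overhang). The passenger strand is 2'-O-methylated at positions 1-2 so only the guide strand loads into RISC. Duplexes were reverse-transfected at 10 nM with RNAiMAX in triplicate in 384-well plates; viability was read by CellTiter-Glo ATP content 96 h after transfection. Values are % viability normalised to lipid-only wells (HeyA8, H460, M565) or to siNT1 (3LL).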

M565 = assay: as above; details: concentration: 10 nM; 96 h; Mus musculus
Experimental: as §1

H460 = assay: as above; details: concentration: 10 nM; 96 h; Homo sapiens
Experimental: as §1

3LL = assay: cell viability relative to siNT1 control; HeyA8 human ovarian and H460 human lung cancer; M565 mouse liver and 3LL mouse lung cancer; siNT1 is a non-toxic control siRNA; higher = less toxic; details: concentration: 10 nM; 96 h; Mus musculus
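Wherever cell viability relative to lipid-only control is given: reverse lipid transfection in 384-well plates, in triplicate, of duplexes on a non-toxic 19mer backbone with passenger strand 2′-O-methylated at positions 1 and 2, luminescence viability read-out.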
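Wherever cell viability relative to siNT1 control is given: Luminescence-based viability of cells reverse transfected in 384-well plates with lipid-complexed siRNAs built on a non-toxic 19mer backbone whose passenger strand carries 2′-O-methyl groups at positions 1 and 2, triplicates.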

Sequence	cell viability (HeyA8) [%]	cell viability (M565) [%]	cell viability (H460) [%]	cell viability (3LL) [%]
UCAGCGGACAUGUAAACCAAA	78 ± 12	60.3 ± 14	64.9 ± 5.4	100 ± 16
UCAGCGUACAUGUAAACCAAA	81.4 ± 4.7	80.1 ± 5	85.8 ± 5.3	95.5 ± 12
UCAGCUAACAUGUAAACCAAA	91.2 ± 2.4	73.5 ± 3.2	83.6 ± 12	94.7 ± 15
UCAGCUCACAUGUAAACCAAA	89.5 ± 3.7	37.8 ± 7.7	69.1 ± 11	74.1 ± 9.8
UCAGCUGACAUGUAAACCAAA	93 ± 9.9	60.1 ± 4.5	84.4 ± 5.8	95.1 ± 19
UCAGCUUACAUGUAAACCAAA	82.6 ± 12	78.2 ± 14	68.8 ± 3.6	97.8 ± 18
UCAGGAAACAUGUAAACCAAA	88.3 ± 9.2	66.6 ± 5.3	66.2 ± 14	95 ± 22
UCAGGACACAUGUAAACCAAA	42.3 ± 4.4	45.7 ± 5.2	20.4 ± 2.6	78 ± 16
UCAGGAGACAUGUAAACCAAA	56.2 ± 4.2	32.1 ± 6.2	54.5 ± 7.7	101 ± 17
UCAGGAUACAUGUAAACCAAA	60.9 ± 4.4	23.1 ± 2.8	44.2 ± 5.9	88.2 ± 18
UCAGGCAACAUGUAAACCAAA	83.5 ± 6.7	45.4 ± 4.1	65.7 ± 18	89.8 ± 15
UCAGGCCACAUGUAAACCAAA	8.14 ± 0.1	3.41 ± 0.43	15.8 ± 1.6	10.2 ± 4.4
UCAGGCGACAUGUAAACCAAA	91.2 ± 6.2	38.1 ± 2.7	58.5 ± 8.1	88 ± 20
UCAGGCUACAUGUAAACCAAA	14.2 ± 1.2	19.2 ± 6.3	50.7 ± 7.6	40.4 ± 9.4
UCAGGGAACAUGUAAACCAAA	79.3 ± 9.3	51.9 ± 3.1	49.5 ± 8.8	82.5 ± 19
UCAGGGCACAUGUAAACCAAA	9.94 ± 0.29	22.4 ± 2.6	21.8 ± 4.7	37.1 ± 8.4
UCAGGGGACAUGUAAACCAAA	39.5 ± 2.5	15.8 ± 5.1	34.3 ± 6.2	56.3 ± 10
UCAGGGUACAUGUAAACCAAA	18.9 ± 0.22	11.1 ± 2.9	28.7 ± 5.9	32.5 ± 10
UCAGGUAACAUGUAAACCAAA	83 ± 3.6	71.6 ± 4.3	60.4 ± 3.6	103 ± 17

Sequence	cell viability (HeyA8) [%]	cell viability (M565) [%]	cell viability (H460) [%]	cell viability (3LL) [%]
UCAGGUCACAUGUAAACCAAA	28.1 ± 5.2	22.6 ± 9.8	43.1 ± 8	33.8 ± 6
UCAGGUGACAUGUAAACCAAA	77.8 ± 1.3	47 ± 3.8	57.5 ± 6.8	88.2 ± 14
UCAGGUUACAUGUAAACCAAA	76.7 ± 5	52.4 ± 5.9	56.2 ± 12	102 ± 12
UCAGUAAACAUGUAAACCAAA	92.8 ± 1.6	74.2 ± 6.2	55.2 ± 4.5	90.8 ± 17
UCAGUACACAUGUAAACCAAA	38.4 ± 2.8	58.6 ± 8	38 ± 6.1	54.8 ± 8.7
UCAGUAGACAUGUAAACCAAA	68.9 ± 8.8	85.6 ± 4.5	57.2 ± 3.1	87 ± 12
UCAGUAUACAUGUAAACCAAA	78.4 ± 3.3	69.3 ± 8.1	48.7 ± 2.3	95.1 ± 13
UCAGUCAACAUGUAAACCAAA	81.1 ± 2.9	47 ± 7.3	57.4 ± 4	84.1 ± 9.8
UCAGUCCACAUGUAAACCAAA	18.2 ± 0.95	26.5 ± 3.4	40.7 ± 8.7	47.7 ± 9.9
UCAGUCGACAUGUAAACCAAA	71.8 ± 8.5	47.1 ± 4.2	51.1 ± 6.4	86.9 ± 16
UCAGUCUACAUGUAAACCAAA	58.1 ± 5.8	20.7 ± 2.5	46.6 ± 6.4	61.8 ± 5.9
UCAGUGAACAUGUAAACCAAA	69.2 ± 7.6	68.9 ± 3.3	56.7 ± 12	96.1 ± 15
UCAGUGCACAUGUAAACCAAA	73.9 ± 5.2	83.6 ± 10	38.7 ± 4	92.6 ± 15
UCAGUGGACAUGUAAACCAAA	29.3 ± 5	31.8 ± 4.5	34.8 ± 4.2	36.9 ± 4.5
UCAGUGUACAUGUAAACCAAA	81.8 ± 14	51.4 ± 7.6	57.2 ± 2	94 ± 13
UCAGUUAACAUGUAAACCAAA	93.8 ± 14	67.6 ± 4	66.3 ± 1.2	96.8 ± 20
UCAGUUCACAUGUAAACCAAA	64.3 ± 4.4	13.3 ± 2.1	53.8 ± 1.5	92.5 ± 9.6
UCAGUUGACAUGUAAACCAAA	84.5 ± 12	48 ± 4.3	52.8 ± 6.8	93.6 ± 11
UCAGUUUACAUGUAAACCAAA	62 ± 5.7	72.6 ± 7.6	53.1 ± 2.3	86.2 ± 11

Sequence	cell viability (HeyA8) [%]	cell viability (M565) [%]	cell viability (H460) [%]	cell viability (3LL) [%]
UCAUAAAACAUGUAAACCAAA	90 ± 6	65.9 ± 9.1	33.9 ± 1.6	91.4 ± 12
UCAUAACACAUGUAAACCAAA	55.84 ± 0.33	56.8 ± 14	36.3 ± 1.8	95.3 ± 19
UCAUAAGACAUGUAAACCAAA	88.9 ± 5.7	68 ± 12	30.5 ± 7.5	95.1 ± 12
UCAUAAUACAUGUAAACCAAA	73.1 ± 5.5	78.9 ± 14	41.9 ± 5.5	94.4 ± 15
UCAUACAACAUGUAAACCAAA	88.5 ± 4.5	81 ± 20	36.4 ± 6.8	94.4 ± 18
UCAUACCACAUGUAAACCAAA	65.7 ± 6.7	62.7 ± 17	29.1 ± 1.6	31.7 ± 7.2
UCAUACGACAUGUAAACCAAA	91.5 ± 12	84 ± 17	36.8 ± 2.7	100 ± 14
UCAUACUACAUGUAAACCAAA	61.1 ± 6.9	81.8 ± 9.6	20.7 ± 1.3	98.3 ± 11
UCAUAGAACAUGUAAACCAAA	86.7 ± 1.7	50.9 ± 12	41.6 ± 2.6	91 ± 19
UCAUAGCACAUGUAAACCAAA	16.6 ± 0.94	3.78 ± 1.1	22.6 ± 1.2	12.4 ± 2.2
UCAUAGGACAUGUAAACCAAA	46.2 ± 5.6	11.9 ± 3.7	22.4 ± 1	47.4 ± 10
UCAUAGUACAUGUAAACCAAA	43.7 ± 4.5	16.4 ± 6.3	32.5 ± 4.8	84.7 ± 17
UCAUAUAACAUGUAAACCAAA	88.9 ± 3.6	64.3 ± 14	36.1 ± 4.6	97 ± 31
UCAUAUCACAUGUAAACCAAA	75.5 ± 3	61.6 ± 17	30.1 ± 4.7	96.5 ± 9.8
UCAUAUGACAUGUAAACCAAA	83 ± 5.3	74.7 ± 11	53.2 ± 8.9	99.4 ± 15
UCAUAUUACAUGUAAACCAAA	83.1 ± 8.1	63.1 ± 15	39.3 ± 3.5	93.1 ± 20
UCAUCAAACAUGUAAACCAAA	42.9 ± 4.4	55.4 ± 9.3	60.6 ± 7.8	82.3 ± 18
UCAUCACACAUGUAAACCAAA	58.3 ± 1.1	71.6 ± 5.7	34 ± 3.8	73.8 ± 10
UCAUCAGACAUGUAAACCAAA	24.8 ± 1.1	53.1 ± 4.7	59.8 ± 6.7	84.7 ± 16
